This data set concerns ATP. The data set can be described thus: switch fluorescence ratio, 500 uM ATP over buffer (Cy3 cluster intensity, sum of 5 cycles each) (fold (ratio)); higher = stronger signal-on switching upon ATP binding; sequences stand for … in TCGTCGGCAGCGTCAGATGTGTATAAGAGACAGTTTTTTTTTTTTTTTTTTTTTTTTT…TC. The conditions noted are these: aptamer strand: ATP DNA aptamer (quencher-CACCTGGGGGAGTATTGCGGAGGAAGG + anchor), 100 nM annealed; ATP concentration: 500 uM; one replicate. An outline of the steps: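 Values give the fluorescence ratio for each switch-domain sequence, averaged from per-cluster ratios of summed target-cycle to summed buffer-cycle Cy3 intensity. The Cy3-labelled switching-strand clusters sat on a modified Illumina MiSeq flow-cell, were annealed to 100 nM quencher-labelled ATP aptamer, and were imaged in selection buffer, then after 15 min with 500 uM ATP at 22 °C. Five cycles ran with NaOH stripping and re-annealing between them, and clusters outside 100-1000 RFU were excluded.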

Sequences with one replicate were seen in a single cluster, so their values are uncertain.

In the supplement of paper PMC10126150 one finds switch fluorescence ratio data, which are given here for 78 sequences.
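Also: ATP exposure 15 min at 22 °C before imaging.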

For CGACCCGTTC, the switch fluorescence ratio is 1.06.
TTTCCATGTA: the switch fluorescence ratio was 1.04.
Consider TTTGGTTATC, for which the switch fluorescence ratio was found to be 0.982.
For TGTCCTAATA, the switch fluorescence ratio turned out to be 0.984.
Regarding ATGTCATTAA, the switch fluorescence ratio amounted to 1.01.
GGGGTACAAA: the switch fluorescence ratio worked out at 1.03.
In the case of AAGCTCCAGC, the switch fluorescence ratio amounted to 1.02.
Consider CCTCTATAAT, for which the switch fluorescence ratio came to 3.26.
In the case of CTCAAACAG, the switch fluorescence ratio stood at 1.04.
In the case of ACCAATGTGC, the switch fluorescence ratio amounted to 1.06.
On to TACTCGCTCG, for which the switch fluorescence ratio was 1.02.
Turning to GGGTACAGTG, the switch fluorescence ratio was 0.977.
Take GTAATTTGGC: the switch fluorescence ratio stood at 1.01.
With CGTGACAGTA, the switch fluorescence ratio worked out at 1.02.
Regarding GACTTGCATG, the switch fluorescence ratio was 1.03.
With GATTCTTAGA, the switch fluorescence ratio worked out at 0.971.
On to GCTGGTGACA, for which the switch fluorescence ratio turned out to be 0.996.
On to GGGGAAGCAT, for which the switch fluorescence ratio was found to be 0.998.
For GTAGTGCGCG, the switch fluorescence ratio is 1.02.
Take TGCCGCAGGG: the switch fluorescence ratio was 1.04.
As to TAATCACTGG, the switch fluorescence ratio was determined as 1.02.
Regarding GAAGGGCTTA, the switch fluorescence ratio was found to be 0.987.
For TGCGTTTAAA, the switch fluorescence ratio worked out at 1.12.
As to TTTCTTGGTG, the switch fluorescence ratio was 0.996.
Regarding ATCGATCAAA, the switch fluorescence ratio was determined as 1.01.
On to AATTGCTTTT, for which the switch fluorescence ratio is 1.
In the case of GCCTGAGTTC, the switch fluorescence ratio is 1.04.
On to CCACTTACTT, for which the switch fluorescence ratio amounted to 1.23.
For the sequence TGGGTCAGAT, the switch fluorescence ratio was found to be 0.971.
CGTCCAACTA: the switch fluorescence ratio is 1.08.
As to GAGTGAGGTC, the switch fluorescence ratio was determined as 1.03.
On to GGACAAAGGG, for which the switch fluorescence ratio came out at 0.97.
Consider TTTACATGGA, for which the switch fluorescence ratio was found to be 0.98.
Take ACGTTCAGTT: the switch fluorescence ratio was 0.972.
As to ACCTATAGAA, the switch fluorescence ratio was 1.05.
With GCACGAAGGC the figure was 1; with GTCATCAAAT, 1.03.
On to CTGGTTAGAT, for which the switch fluorescence ratio turned out to be 1.02.
CGTTTGCGCC: the switch fluorescence ratio is 0.943.
Consider TAGATGGGC, for which the switch fluorescence ratio was 1.02.
Take ACAAGGGGTG: the switch fluorescence ratio amounted to 1.06.
With ACTGTTGCCA the figure was 0.984.
Turning to ACAGGCAGCG, the switch fluorescence ratio amounted to 1.05.
With GACCTGTTAG, the switch fluorescence ratio is 0.962.
Take TTTCCTTCAA: the switch fluorescence ratio was determined as 3.22.
In the case of TACGAAAAAA it was 1.18; in that of GGCCGTTGGA, 0.977.
With CGCCTCCATA the figure was 1.09.
Take TACTAGTTG: the switch fluorescence ratio is 0.992.
For the sequence TATGAGTTCA, the switch fluorescence ratio was found to be 0.981.
In the case of GGGCGGAGGC it was 1.04.
With CATAGTCACG the figure was 0.983; with AGCGGCCCTG, 0.97.
With GATTCCATCT, the switch fluorescence ratio worked out at 1.04.
In the case of GACGCCGCGC it was 3.27; in that of TAGCAGACAC, 1.53; in that of TCTAAAGTAG, 0.993.
On to CCCATCAGTG, for which the switch fluorescence ratio was determined as 3.09.
Take CGCCTTTTGG: the switch fluorescence ratio turned out to be 1.
Regarding TCTCTCTATC, the switch fluorescence ratio came to 1.06.
Consider TAACTTTAA, for which the switch fluorescence ratio was 1.02.
With TTTGCTCTGG the figure was 1.15.
With ATAGAATCTG the figure was 1.01.
Consider GGCACTAATA, for which the switch fluorescence ratio amounted to 1.03.
In the case of GGCCGCGTGG it was 0.991; in that of TGATGGTTCG, 0.96.
In the case of CTGTTAAGG, the switch fluorescence ratio came out at 0.987.
In the case of CGCCGGTA it was 1.01.
In the case of TTTGCACGAG, the switch fluorescence ratio was 0.992.
Turning to TCCAGTAGGC, the switch fluorescence ratio was 1.09.
As for CTAGGACCTT, the switch fluorescence ratio turned out to be 1.17.
Consider TTGTCTAGAC, for which the switch fluorescence ratio was 1.07.
As for GAAGGACTG, the switch fluorescence ratio amounted to 1.05.
With TCTACTTGTT the figure was 1.05; with CACCTGCAGA, 1.15.
In the case of AGAGGGAAC it was 0.967.
With CGGCTTCCCG the figure was 1.01.
For TAATGGCGGT, the switch fluorescence ratio is 0.987.
